PubChem BioAssay AID1768 (National Center for Advancing Translational Sciences (NCATS), 2009)
The whole screen tested about 270,000 compounds, of which about 620 (0.23%) were called active. Inconclusive means that the source gave no clear call. Such entries were picked first, then a sample of the others. Calls come from the whole dose curve; as a rule, active = well fitted inhibition curve with a large enough effect in the polarisation, with a control signal flat (not every such curve was filed as active); inconclusive = small, poorly fitted or top-dose-only effect, or effect the other way, or a change in a side signal; inactive = no such curve, though single readings can be large or run the other way; the % refers to the polarisation. Potencies beside an inconclusive call are fits to weak or partial responses and may not hold up. “Side channel” marks fits to a control or component signal instead of the main read-out.

molecular target: Menin (Homo sapiens) (UniProt O00255); assay: qHTS Assay for Inhibitors Targeting the Menin-MLL Interaction in MLL Related Leukemias: Competition With Texas Red Labeled MLL-derived Mutant Peptide; conditions: fluorescence polarization; FP activity change, negative = inhibition: at 61.6 µM (top of the series); for FP activity change, negative = inhibition: % of control where 0% means no effect
Potency is the fitted concentration of half-maximal effect; tags give direction and shape of the fitted curve or compound fluorescence and quenching.

Chain of UniProt O00255 (O00255 whole entry, looked up): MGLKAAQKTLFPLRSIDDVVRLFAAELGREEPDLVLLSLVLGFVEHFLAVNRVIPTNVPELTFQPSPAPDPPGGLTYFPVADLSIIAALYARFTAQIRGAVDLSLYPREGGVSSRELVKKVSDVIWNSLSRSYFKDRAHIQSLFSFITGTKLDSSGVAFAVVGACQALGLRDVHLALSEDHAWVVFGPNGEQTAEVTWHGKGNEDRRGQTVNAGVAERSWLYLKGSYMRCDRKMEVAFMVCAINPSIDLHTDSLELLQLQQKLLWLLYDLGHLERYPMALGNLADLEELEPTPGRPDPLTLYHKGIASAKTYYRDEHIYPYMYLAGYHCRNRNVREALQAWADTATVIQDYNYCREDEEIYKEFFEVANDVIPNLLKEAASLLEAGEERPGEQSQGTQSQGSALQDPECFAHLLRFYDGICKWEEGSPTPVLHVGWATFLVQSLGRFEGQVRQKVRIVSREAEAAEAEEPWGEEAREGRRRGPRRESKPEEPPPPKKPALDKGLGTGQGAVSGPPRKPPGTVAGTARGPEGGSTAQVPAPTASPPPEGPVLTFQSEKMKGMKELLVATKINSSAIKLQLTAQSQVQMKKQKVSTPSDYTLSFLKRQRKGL

Compound | Potency | FP activity change, negative = inhibition
COc1cc(/C=C/C(=O)O)cc(S(=O)(=O)N2CCc3ccccc3C2)c1OC | inconclusive: 1.26 µM [inhibitor, full curve, poor fit] | –
O=C(c1cc(S(=O)(=O)N2CCCC2)c(Cl)cc1Cl)N1CCCC1 | inconclusive: 1 µM [quencher, side channel, full curve, poor fit] | –
CN(C)CCCN(C(=O)c1ccc2c(c1)CCCC2)c1nc2cc3c(cc2s1)OCO3 | inconclusive: 20 µM [inhibitor, partial curve] | –
CS(=O)(=O)C1=NN2C(=N)/C(=C\c3ccc(OC(=O)c4ccco4)cc3)C(=O)N=C2S1 | inconclusive: 20 µM [quencher, side channel, partial curve] | –
COc1ccc(C(CC(=O)O)NC(=O)C2CCCCC2)cc1 (stereo not drawn) | inconclusive: 3.55 µM [inhibitor, partial curve] | –
Cc1cc(C)c(C(=O)N(CCN(C)C)CC2CCCN(Cc3ccccc3F)C2)o1 (stereo not drawn) | inconclusive: 31.6 µM [inhibitor, single point] | –
COc1ccc(-c2cc(C(F)(F)F)nc(N3CCN(C)CC3)n2)cc1 | inconclusive: 17.8 µM [fluorescent, side channel, single point] | –
COc1ccc(NC(=O)N2CCC(Cc3ccccc3)CC2)cc1 | inconclusive: 22.4 µM [fluorescent, side channel, single point] | –
CSCCOC(=O)C1=C(C)Nc2ccc(C)cc2S1 | inconclusive: 15.8 µM [quencher, side channel, partial curve] | –
CSc1ccccc1C(=O)N(C)C(c1ccccc1)c1ccccc1 | inconclusive: 1.78 µM [inhibitor, full curve] | –
CCN(CC)c1ccc(NC(=O)CN2CCN(c3ccccc3F)CC2)cc1 | inconclusive: 3.55 µM [inhibitor, full curve, poor fit] | –
O=C(NCc1ccccc1)c1cccc(COc2ccccc2Cl)c1 | inconclusive: 39.8 µM [quencher, side channel, single point] | –
COc1ccc(Oc2ncc3ncc(=O)n(CCc4ccccc4)c3n2)cc1 | inconclusive: 8.91 µM [fluorescent, side channel, partial curve, poor fit] | –
Cn1cccc1Cc1nnc(SCC(=O)NC2CCCCC2)n1-c1ccc(F)cc1 | inconclusive: 1.78 µM [fluorescent, side channel, full curve, poor fit] | –
CC1CN(C(=O)c2ccc(COc3ccc4ccccc4c3)o2)CC(C)O1 (stereo not drawn) | inconclusive: 20 µM [fluorescent, side channel, single point] | –
COc1ccccc1NC(=O)c1nn(C)c(C(=O)Nc2ccccc2OC)c1[N+](=O)[O-] | inconclusive: 28.2 µM [quencher, side channel, single point] | –
CC(C)CC(NC(=O)c1cccc(Cl)c1)C(=O)O (stereo not drawn) | – | inactive: 14.1%
Cc1csc(NC(=O)c2c(O)c3c(n(CC(C)C)c2=O)CCCC3)n1 | inconclusive: 2.82 µM [inhibitor, full curve, poor fit] | –
Cc1ccc(C)c(-n2cc(CNCCCn3cccn3)c(-c3ccccc3)n2)c1 | inconclusive: 3.16 µM [fluorescent, side channel, full curve, poor fit] | –
O=C(O)COc1cccc2c1CCC=C2CCO/N=C(\c1ccccc1)c1cccnc1 | – | inactive: 10.6%

Compound | Potency | FP activity change, negative = inhibition
CC1=C(C)C(=O)C(C(CCCCCC(=O)O)c2ccccc2)=C(C)C1=O (stereo not drawn) | – | inactive: -3.63%
O=C(NCCN1CCN(c2cccc(Cl)c2)CC1)c1ccc(CSc2nc3ccncc3[nH]2)cc1 | inconclusive: 44.7 µM [inhibitor, single point] | –
CCCNC(=O)Nc1ccc(C(F)(F)F)cc1 | inconclusive: 28.2 µM [quencher, side channel, single point] | –
COC(=O)c1ccc(NC(=O)Nc2ccc(F)c(Cl)c2)cc1 | inconclusive: 25.1 µM [quencher, side channel, partial curve] | –
Cc1nn(C)cc1C(C)NCc1c(C(=O)N2CCCCCCC2)nc2ccc(Cl)cn12 (stereo not drawn) | inconclusive: 25.1 µM [fluorescent, side channel, single point] | –
CCN(CC)c1ccc(C2N(C(=O)N3CCOCC3)CCN2S(=O)(=O)c2ccc(C)cc2)cc1 (stereo not drawn) | inconclusive: 0.631 µM [inhibitor, full curve, poor fit] | –
O=C(Nc1nccs1)c1cc2sccc2n1Cc1ccc(Cl)cc1 | inconclusive: 8.91 µM [quencher, side channel, single point] | –
COc1cc(NC(=O)CN(C)S(=O)(=O)c2ccc(-c3ccc(=O)[nH]n3)s2)cc(OC)c1 | inconclusive: 12.6 µM [quencher, side channel, partial curve] | –
COC(=O)C(Cc1ccccc1)NC(=O)COc1ccc(C(C)(C)C)cc1 (stereo not drawn) | inconclusive: 17.8 µM [fluorescent, side channel, partial curve] | –
Cc1ccc(NC(=O)COC(=O)/C=C/c2ccc(Br)o2)cc1S(=O)(=O)N(C)C | inconclusive: 28.2 µM [quencher, side channel, single point] | –
Cc1cccc(OCC(=O)NNC(=O)CCc2ccccc2)c1 | inconclusive: 31.6 µM [inhibitor, single point] | –
COc1cn(-c2ccccc2)nc1C(=O)Nc1ccc(C)cc1Cl | inconclusive: 39.8 µM [inhibitor, single point] | –
CCCNC(=O)c1ccc(N2CCC3(CC2)CC(c2ccc(Cl)cc2)=NO3)c([N+](=O)[O-])c1 | – | inactive: -0.331%
Cc1cccc(NC(=O)CN2C(=O)N/C(=C/c3ccc(-c4cccc(C(=O)O)c4C)o3)C2=O)c1 | inconclusive: 12.6 µM [quencher, side channel, partial curve] | –
O=C(NC(=S)Nc1nc(-c2ccc(Cl)cc2)cs1)c1cccs1 | inconclusive: 31.6 µM [quencher, side channel, single point] | –
O=C(Nc1cccc(S(=O)(=O)Nc2ccc(Cl)cc2)c1)c1ccc2c(c1)OCCO2 | inconclusive: 17.8 µM [quencher, side channel, partial curve] | –
Cc1cc(C)c(C)c(OCCCCN(C)Cc2ccccc2)c1 | inconclusive: 22.4 µM [inhibitor, single point] | –
Fc1ccccc1N1CC(c2ccccc2)C(c2cccs2)=N1 (stereo not drawn) | inconclusive: 14.1 µM [quencher, side channel, partial curve] | –
Oc1ccc(/C=N/Nc2ncc(Br)cn2)c(O)c1 | inconclusive: 28.2 µM [quencher, side channel, single point] | –
c1ccc(Nc2cccc(Nc3ccccc3)n2)cc1 | inconclusive: 17.8 µM [quencher, side channel, partial curve] | –

Compound | Potency | FP activity change, negative = inhibition
Cn1cccc1/C=N\NC(=O)Cc1ccc(Br)c2ccccc12 | inconclusive: 5.01 µM [fluorescent, side channel, single point] | –
Cc1ccc(S(=O)(=O)N2CCN(C(=O)N(c3ccccc3)c3ccccc3)CC2)cc1 | inconclusive: 3.16 µM [fluorescent, side channel, full curve, poor fit] | –
Cc1ccccc1NS(=O)(=O)c1ccc(OCCNS(C)(=O)=O)cc1 | – | inactive: 2.46%
CC(C)(C)OC(=O)N1CCCC1C(=O)NC1COC2CC(n3ccc(=O)[nH]c3=O)OC12 (stereo not drawn) | – | inactive: 8.42%
CCOc1cc(-c2sc(Nc3ccccc3)n[n+]2C)ccc1OC | inconclusive: 3.16 µM [inhibitor, partial curve] | –
O=C1Nc2cc(Cl)c(Cl)cc2N(O)N1c1cccc(Cl)c1 | inconclusive: 39.8 µM [quencher, side channel, single point] | –
O=C(O)c1cccc(Nc2nc(-c3ccccc3)nc3ccccc23)c1 | inconclusive: 20 µM [quencher, single point] | –
O=C(/C=C/c1ccco1)NC(=S)Nc1ccc(N2CCCC2)cc1 | inconclusive: 28.2 µM [quencher, side channel, partial curve] | –
Cc1ccc2c(c1)C(=O)[C@]1(O)CCN(c3ccccc3)C1=N2 | inconclusive: 39.8 µM [inhibitor, single point] | –
O=C(Nc1ccc2oc(=O)ccc2c1)c1ccc2ccccc2c1 | inconclusive: 39.8 µM [inhibitor, single point] | –
O=c1[nH]ncc2c3ccccc3n(Cc3cccc(Cl)c3)c12 | – | inactive: -15%
COc1ccc(/C=C2/SC(=S)N(NS(=O)(=O)c3ccc(C)cc3)C2=O)cc1 | inconclusive: 35.5 µM [quencher, side channel, single point] | –
COc1ccccc1-n1cc(C(=O)N2CCCC(CO)(Cc3ccccc3C)C2)cn1 (stereo not drawn) | inconclusive: 1.41 µM [fluorescent, side channel, full curve, poor fit] | –
CCN=C1S/C(=C\c2cc(Br)c(O)c(OC)c2)C(=O)N1CC | inconclusive: 22.4 µM [quencher, side channel, partial curve, poor fit] | –
COCCNC(=O)c1c[nH]c2ccc(S(=O)(=O)N(C)c3ccc(C)c(C)c3)cc2c1=O | – | inactive: 24.4%
COC(=O)C1=C(C)N(Cc2ccccc2)C(=NCc2ccco2)N[C@H]1c1ccc(Br)cc1 | – | inactive: -23.3%
Cc1ccc(CNC(=O)C2CCCN(S(=O)(=O)c3cccc4nonc34)C2)cc1 (stereo not drawn) | inconclusive: 10 µM [fluorescent, side channel, partial curve] | –
COc1ccc(N(Cc2cc3cc(OC)ccc3[nH]c2=O)C(=O)C2CCCO2)cc1 (stereo not drawn) | inconclusive: 17.8 µM [fluorescent, side channel, single point] | –
